“And” between values parts separate entries of the source, which are not always exact repeats. Identical values can stand only once. Hit rate of the full screen: of about 110,000 compounds, about 230 (0.21%) showed an effect of 50% or more. The list shows a part of the results.
target: DPAP1 (Plasmodium falciparum, UniProt Q8IIJ9); test: primary screen, percent inhibition; read by cleavage of a fluorogenic dipeptide substrate; higher = more effect of the substance; parameters: species or system P. falciparum D10 trophozoite lysates; single well
Sequence (Q8IIJ9 whole entry, looked up): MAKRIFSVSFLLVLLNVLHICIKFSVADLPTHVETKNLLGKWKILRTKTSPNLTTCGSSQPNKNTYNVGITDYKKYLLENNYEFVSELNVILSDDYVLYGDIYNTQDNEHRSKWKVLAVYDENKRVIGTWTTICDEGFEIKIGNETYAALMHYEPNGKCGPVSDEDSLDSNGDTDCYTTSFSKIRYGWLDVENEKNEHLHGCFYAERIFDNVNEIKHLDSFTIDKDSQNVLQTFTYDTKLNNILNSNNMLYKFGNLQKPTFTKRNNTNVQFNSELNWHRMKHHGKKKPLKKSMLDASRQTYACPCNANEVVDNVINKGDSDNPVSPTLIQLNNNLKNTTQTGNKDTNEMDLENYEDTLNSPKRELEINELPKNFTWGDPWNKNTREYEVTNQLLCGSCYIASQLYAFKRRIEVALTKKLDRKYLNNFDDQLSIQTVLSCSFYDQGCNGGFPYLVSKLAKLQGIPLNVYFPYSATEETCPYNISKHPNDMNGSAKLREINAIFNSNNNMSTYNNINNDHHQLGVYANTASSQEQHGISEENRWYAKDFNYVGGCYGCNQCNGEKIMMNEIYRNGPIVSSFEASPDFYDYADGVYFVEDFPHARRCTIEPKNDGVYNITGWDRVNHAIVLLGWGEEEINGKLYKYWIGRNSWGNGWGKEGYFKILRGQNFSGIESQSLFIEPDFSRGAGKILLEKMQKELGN
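Further: 30 min substrate incubation versus DMSO and 10 µM JCP410 controls.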

Row | SMILES | % Inhibition @ 10 uM
1 | COc1cc(/C=C(\C#N)[N+](=O)[O-])ccc1O | 0.705%
2 | COc1cc(OC)cc(C(=O)N(Cc2nc(-c3cccc(C)c3)no2)C(C)C)c1 | 1.66%
3 | CCCc1nn(C)c(C(=O)Nc2cccc(OC)c2)c1Cl | -1.84%
4 | COc1ccc(C2C(C#N)=C(N)OC3=C2C(=O)CCC3)cc1COc1ccccc1Br (centres unmarked) | -0.105%
5 | C=C(C)Cn1c(C(O)c2ccccc2)nc2ccccc21 (centres unmarked) | 1.12%
6 | COc1ccc(-c2noc(-c3ccccn3)n2)cc1 | -3.33%
7 | COc1cc2c(cc1OC)C(c1cccc(OC)c1O)NCC2 (centres unmarked) | -11.6%
8 | CC(C)c1ccc(NC(=O)CN(c2ccccc2F)S(C)(=O)=O)cc1 | -5.06%
9 | CCN(CC)c1ccc(NC(=O)COc2ccccc2C)cc1 | -0.999%
10 | Cc1ccc(C2CC(C(F)(F)F)n3nc(C(=O)N4CCCC4)c(Cl)c3N2)cc1 (centres unmarked) | -2.8%
11 | CCOC(=O)c1nnn(-c2nonc2N)c1CN(C)C1CCCCC1 | 3.25%
12 | CN(CC(COc1ccccc1)OC(=O)c1ccc(Cl)cc1)C1=NS(=O)(=O)c2ccccc21 (centres unmarked) | -0.597%
13 | O=C(Cn1nnc(-c2ccc(F)cc2)n1)N1CCCCC1 | -5.28%
14 | O=c1c2c(n3cnnc3n1-c1ccccc1)-c1ccccc1CC21CCCCC1 | -1.81%
15 | CN1C(=O)C(=Cc2cn(Cc3ccccc3C#N)c3ccccc23)C(=O)N(C)C1=O | -2.87%
16 | Cc1sc2nc(Cc3ccccc3)nc(N3CCCCCC3)c2c1C | 0.238%
17 | COc1ccc(C2(O)CSC3=C(C#N)C(c4ccccc4F)CC(=O)N32)cc1 (centres unmarked) | 3.24%
18 | COc1ccc(-c2cc(C)no2)cc1S(=O)(=O)N1CCc2ccccc2C1 | 1.84%
19 | CCCCSc1nc(O)c(Cc2ccccc2)c(O)n1 | -9.14%
20 | Cc1ccc(S(=O)(=O)N2CCN(C(=O)CSc3nc4ccccc4[nH]3)C2)cc1 | -1.69%
21 | CCc1ccc(NC2=C(Cl)C(=O)N(c3ccccc3)C2=O)cc1 | 5.58%
22 | Cc1nc(-c2ccccc2)c2cc(Cl)sc2n1 | 6.24%
23 | CN(CCCNC(=O)c1cc2cc3ccc(Cl)cc3nc2o1)Cc1ccccc1 | -3.35%
24 | Cc1nn(CC(=O)NC(C)C)c(=O)c2cc3ccccc3n12 | 3.24%
25 | OCCN1CCN(Cc2ccsc2)CC1 | 1.9%
26 | COc1cccc(OC)c1C(=O)Nc1nc(-c2ccccc2)c(C)s1 | 8.36%

Row | SMILES | % Inhibition @ 10 uM
27 | CCc1ccc(OCC(=O)NCc2cccnc2)c(Br)c1 | -1.06%
28 | CN(C)c1cnn(-c2ccccc2)c(=O)c1N | 0.215% and -3.8%
29 | CC(C)(C)NS(=O)(=O)c1ccc(NC(=O)NC2CCCCC2)cc1 | -1.27%
30 | N#CC1=C(N)OC2=C(C(=O)CC(c3ccccc3)C2)C1c1ccsc1 (centres unmarked) | 10.8%
31 | CC(c1ccccc1)n1c(CNC(=O)c2ccccc2)nc2ccccc21 (centres unmarked) | -1.15%
32 | Cc1oc(-c2cccs2)nc1CS(=O)CC(=O)NCCC(C)C (centres unmarked) | -0.138%
33 | Clc1ccc(CNc2c3c(nc4nncn24)CCC3)cc1 | -7.24%
34 | COc1ccc(C(C#N)Nc2ccc(C)cc2)cc1 (centres unmarked) | 4.22%
35 | CC1CN(Cc2nc3c(c(=O)n(C)c(=O)n3C)n2Cc2ccccc2)CC(C)O1 (centres unmarked) | -4.14%
36 | CCOc1c(OC)cccc1C1C(C#N)=C(N)Oc2[nH]nc(-c3ccncc3)c21 (centres unmarked) | -0.759%
37 | Cc1c(C(=O)N2CCC(Cc3ccccc3)CC2)cccc1[N+](=O)[O-] | 1.9%
38 | Cc1ccc(C(=O)N/C(=C\c2ccco2)C(=O)NCc2ccccc2F)cc1C | -2.78%
39 | COc1ccc(C(=O)N/C(=C\c2ccc3c(c2)OCO3)C(=O)Nc2ccc3ccccc3c2)cc1 | -6.36%
40 | [O-][n+]1onc2c3nsnc3c(Br)cc21 | -2.9%
41 | NC(=O)C(=S)NCc1ccncc1 | -5.96%
42 | Cc1cccnc1NC(=O)Nc1ccc(Cl)cc1 | -0.925%
43 | N#Cc1cn(CC(=O)Nc2ccccc2F)c2ccccc12 | 4.09%
44 | CCN(CC)CCN1C(=O)C(O)=C(C(=O)c2cccs2)C1c1ccccn1 (centres unmarked) | -0.865%
45 | c1ccc2c(c1)CCN2c1ccncc1 | -0.415%
46 | CCNCC(O)CNC(C)(C)C (centres unmarked) | -2.7%
47 | C=C(C)c1cccc(C(C)(C)NC(=O)NCCc2ccccc2)c1 | 1.26%
48 | C=CCc1cc(/C=C2\Sc3ccccc3C2=O)cc(OCC)c1O | -4.74%
49 | COc1ccc(Nc2nc(N)nc(-c3cc(Cl)ccc3O)n2)cc1 | -1.17%
50 | CN1CCN(Cc2c[nH]c3ccccc23)CC1 | 1.63%
51 | CCC(C)NC(=O)c1cc2c(Cl)ccc3c2n1CCO3 (centres unmarked) | 3.47%
52 | O=C(CN(Cc1ccccc1)S(=O)(=O)c1ccc(Cl)cc1)NCC1CCCO1 (centres unmarked) | -5.26%

Row | SMILES | % Inhibition @ 10 uM
53 | O=C(O)C1CCCCC1C(=O)NCc1ccccc1 (centres unmarked) | 2.01%
54 | N#Cc1c(N)nc2c(c1-c1ccccc1)CCCCCC2 | -4.35%
55 | CC1Cc2cc(C(=O)C3=C(O)C(=O)N(CCN4CCOCC4)C3c3cccs3)ccc2O1 (centres unmarked) | 0.291%
56 | Cc1ccc(-c2cc(C(=O)Nc3ncccn3)c3ccccc3n2)cc1C | 0.331% and -5.79%
57 | C/C=C/Cn1c(SCC(C)C)nc2c1c(=O)[nH]c(=O)n2C | 3.05%
58 | COc1cc(/C=C2/SC(N3CCC(C(N)=O)CC3)=NC2=O)ccc1O | -1.44%
59 | Cc1c2c(nc3ccccc13)OC(C)C2 (centres unmarked) | -2.24%
60 | CCN(CC)CCN(C)Cc1ccccc1Br | 0.162%
61 | CCOc1ccccc1/C=N\n1c(C)nnc1C | -0.339%
62 | CC1(C(=O)n2cnc3ccccc32)CC1(Cl)Cl (centres unmarked) | 8.74%
63 | CC1=C(c2cccc(Br)c2)S(=O)(=O)N=C1NC1CCCCCC1 | 3.87%
64 | Nc1c(C(=O)c2ccc(Cl)cc2)sc2nc(-c3cccnc3)ccc12 | 8.05%
65 | COc1ccc(-c2nnc(SCC(=O)N3CCOCC3)o2)cc1OC | -5.29%
66 | Cc1nc2ccccc2n1CCc1nc2c3ccccc3nc(NCCCOC(C)C)n2n1 | 7.15%
67 | O=C1N=C(Nc2ccccc2C(=O)O)S/C1=C\c1ccco1 | -0.473%
68 | CCNC(=O)c1cc2c(=O)n3ccccc3nc2n(Cc2ccco2)c1=N | 5.17%
69 | Cc1ccc(C(=O)N/C(=C/c2ccc(-c3ccc(Br)cc3)o2)C(=O)NCCCN(C)C)cc1 | 1.63%
70 | COc1ccc(C)cc1N(CC(=O)N1CCCCC1)S(=O)(=O)c1ccc(C)cc1 | 2.25%
71 | Nc1nnc(N2CCN(Cc3ccccc3)CC2)s1 | -0.887%
72 | Cc1ccc(C)n1-c1cccc(C(=O)O)c1 | -5.51%
73 | Cc1ccc(S(=O)(=O)N(CC(=O)NCc2ccccn2)c2ccc(Br)cc2)cc1 | 4.11%
74 | O=C(NC12CC3CC(CC(C3)C1)C2)c1cccnc1 | 0.135%
75 | CC1=C(C(=O)Nc2ccccc2)C(c2ccc(N(C)C)cc2)n2ncnc2N1 (centres unmarked) | 5.12%
76 | CC(=O)OCC12COC(c3cccnc3)C(C(C)=CC1C)C2C (centres unmarked) | -1.85%
77 | Nc1nc(CSc2ccccc2)nc(NCCc2ccccc2)n1 | -2.19%
78 | Cc1ccc2oc(=O)c(C(=O)O)cc2c1 | 4.85%

Row | SMILES | % Inhibition @ 10 uM
79 | COc1cccc(NC(=O)c2ccccc2Cl)c1 | 5.29%
80 | Cc1cc(C(N)=O)c(C)s1 | 3.05%
81 | CN(C(=O)C12CC3CC(CC(C3)C1)C2)C1CCS(=O)(=O)C1 (centres unmarked) | 0.51%
82 | CCCC1=C(C(=O)OCC)C(c2cc(Br)c(OC)cc2OC)C(C#N)=C(N)O1 (centres unmarked) | -3.13%
83 | OCC1CCCN(Cc2ccccc2F)C1 (centres unmarked) | -3.94%
84 | O=C1c2ccccc2C(=O)c2c(OS(=O)(=O)O)cccc21 | -4.27%
85 | Cc1ccc(N2CCN(C(=O)c3ccccc3N)CC2)cc1 | -5.21%
86 | O=C(c1ccc([N+](=O)[O-])cc1)C12CN3CN(CN(C3)C1)C2 | -2.44%
87 | COCCN1Cc2cccc(C(=O)NCc3ccccn3)c2C1=O | -4.14%
88 | CC12CC3CC(C)(C1)CC(OCCNC(=O)c1cc4c(s1)-c1ccccc1OC4)(C3)C2 | -12.6%
89 | CCc1nccn1S(=O)(=O)c1cc(OC)c(Cl)cc1OC | -1.17%
90 | CN(C)CCOC(=O)NS(=O)(=O)c1ccccc1Cl | -6.52%
91 | CCOc1ccc(CNc2nc3ccc(C(=O)c4ccccc4)cc3n3cnnc23)cc1OC | -8.48%
92 | Cc1ccc(S(=O)(=O)N(CC(=O)N2CCOCC2)c2ccccc2Cl)cc1 | -4.31%
93 | C/C(=C\c1ccccc1)CN1CCN(c2cccc(Cl)c2)CC1 | 1.08%
94 | COc1ccc(-c2c/c(=N\CC(=O)NCC(=O)O)c3cc(C)ccc3o2)cc1 | -0.169%
95 | COc1ccc(C2CC(=O)Nc3cc4c(cc32)OCO4)cc1 (centres unmarked) | 1.93%
96 | N=C(N)NCCCC(NC(=O)c1ccccc1)C(=O)Nc1ccc2ccccc2c1 (centres unmarked) | -7.46%
97 | c1ccc(COCn2cnc3c4sccc4ncc32)cc1 | 2.22%
98 | O=C(Cc1ccccc1)NCC1(c2ccccc2)CCCC1 | -0.436%
99 | CCOc1ccc(C(=O)Nc2cc(OC)c(Cl)cc2OC)cc1 | -5.82%
100 | COc1ccc(CCn2c(SCC(=O)c3ccc(O)c(O)c3)nc3ccsc3c2=O)cc1OC | 5.43%
101 | CCc1ccc(OCC(=O)Nc2nccs2)c(Br)c1 | -13.7%
102 | CCOC(=O)c1c(NC(=O)c2ccco2)sc2c1CCCC2 | 11.6%
103 | CCN(/C=C1\C(=O)N(c2ccc(C)cc2)C(=O)c2ccccc21)CC | -1.28%
104 | CCCN1CCN(C(=O)c2ccc(CS(=O)Cc3ccc(Cl)cc3)o2)CC1 (centres unmarked) | 2.3%

— publication PMC6919601, “Identification of Plasmodium dipeptidyl aminopeptidase allosteric inhibitors by high throughput screening” (PLoS ONE, 2019)
